About 25,000 (6.9%) of roughly 360,000 compounds were called active. The shares of active, inactive and inconclusive entries below differ from those in the screen. Calls come from the whole dose curve; as a rule, active = well fitted inhibition curve with a large enough effect; inconclusive = small, poorly fitted or top-dose-only effect; inactive = flat fitted curve, though single readings scatter. Where the call is inconclusive, the potency comes from a doubtful curve fit.
biological target: Luciferin 4-monooxygenase (Photinus pyralis) (UniProt P08659); test: qHTS profiling assay for firefly luciferase inhibitor/activator using purifed enzyme and Km concentrations of substrates (counterscreen for miR-21 project); conditions: purified FLuc, luminescence inhibition; series mostly up to 57.5 µM; note: nearly all actives have a fitted effect of over 55% in size
How it was run: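 Purified P. pyralis luciferase (10nM final) with 10uM D-luciferin and 10uM ATP (Km levels) in 50mM Tris acetate pH 7.5, 10mM Mg acetate, 0.01% Tween-20, 0.05% BSA; qHTS 6-point titration, ~60 µM downward; luminescence read.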
Potency is the fitted concentration of half-maximal effect; tags give direction and shape of the fitted curve.

Sequence of UniProt P08659 (P08659 whole entry, looked up): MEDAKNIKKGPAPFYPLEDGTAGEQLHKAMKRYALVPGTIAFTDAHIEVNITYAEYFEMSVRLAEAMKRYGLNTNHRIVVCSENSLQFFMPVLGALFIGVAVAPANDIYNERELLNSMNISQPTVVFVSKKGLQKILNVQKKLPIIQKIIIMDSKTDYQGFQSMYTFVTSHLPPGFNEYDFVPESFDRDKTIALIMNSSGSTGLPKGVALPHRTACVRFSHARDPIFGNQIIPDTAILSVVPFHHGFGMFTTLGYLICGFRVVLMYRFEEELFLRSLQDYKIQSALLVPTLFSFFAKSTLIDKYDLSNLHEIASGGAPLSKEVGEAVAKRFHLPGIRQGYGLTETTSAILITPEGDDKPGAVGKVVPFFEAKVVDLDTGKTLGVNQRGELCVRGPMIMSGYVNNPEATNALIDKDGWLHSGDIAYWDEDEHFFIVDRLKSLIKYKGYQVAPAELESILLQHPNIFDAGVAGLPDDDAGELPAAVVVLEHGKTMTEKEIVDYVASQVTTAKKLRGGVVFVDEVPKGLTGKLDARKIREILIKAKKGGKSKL

| Structure (SMILES) | Potency |
| --- | --- |
| CC1CCCC(C)N1C(=O)c1cc(-c2ccc(Cl)c(Cl)c2)on1 (configuration not stated) | active: 12 µM |
| CCOc1ccc2nc3sc(C(=O)N4CCN(C)CC4)c(N)c3cc2c1 | active: 10.7 µM |
| CCCCSCCCNC(=O)C1CCN(Cc2nc(-c3cccc(Br)c3)oc2C)CC1 | inconclusive: 37.9 µM [inhibitor, partial curve, poor fit] |
| CC(C)NS(=O)(=O)c1ccc(CCC(=O)N2CCC(C(N)=O)CC2)cc1 | inconclusive: 26.9 µM [inhibitor, single point] |
| Cc1ccc(OCCOc2ccc(Br)cc2/C=N\NC(N)=O)cc1 | inconclusive: 0.0107 µM [inhibitor, partial curve, poor fit] |
| CC(C)CN(CCCNC(=O)CN1N=C(c2ccccc2)CCC1=O)CC(C)C | inactive |
| COc1ccc(/C=C/c2nc3cc(-c4ccccc4)ccc3o2)cc1O | active: 9.53 µM |
| N#C/C(=C(/O)COC(=O)c1cccnc1Cl)c1nc2ccccc2[nH]1 | inconclusive: 19 µM [inhibitor, single point] |
| Cc1ccsc1CN(C)C(=O)CCc1nnc(COc2ccccc2)o1 | inconclusive: 23.9 µM [inhibitor, single point] |
| CCOC(=O)c1c(C)[nH]c(C(=O)OCC(=O)c2c(N)n(C)c(=O)n(C)c2=O)c1C | inactive |
| CC(=O)Oc1ccc2occ(C(=O)c3cccs3)c2c1 | active: 13.5 µM |
| COc1ccc(N2CCN(c3ccc(-c4nc(-c5cccc(C)c5)no4)cc3[N+](=O)[O-])CC2)cc1 | inconclusive: 37.9 µM [inhibitor, single point] |
| COc1ccc(NC(=O)c2cccc(OC(=S)N3CCOCC3)c2)cc1 | inconclusive: 37.9 µM [inhibitor, single point] |
| Cc1ccc2nc(/C(C#N)=C\c3ccc(Oc4ccc(C(F)(F)F)cc4[N+](=O)[O-])cc3)[nH]c2c1 | inactive |
| O=C(NC1CC1)C(=O)c1c(-c2ccccc2)[nH]c2ccccc12 | inconclusive: 21.3 µM [inhibitor, partial curve, poor fit] |
| Oc1ccc(C(=S)N2CCN(c3cccc(Cl)c3)CC2)cc1 | inconclusive: 21.3 µM [inhibitor, partial curve, poor fit] |
| O=c1cc(CSc2ccc(Cl)cc2)nc(-c2ccccc2)[nH]1 | inconclusive: 37.9 µM [inhibitor, partial curve, poor fit] |
| CN(C)c1ccc(C(=O)NC2CCCc3ccccc32)cc1 (configuration not stated) | inconclusive: 10.7 µM [inhibitor, partial curve] |
| CC(=O)Nc1ccc(S(=O)(=O)NC2CC3CCC2C3)cc1 (configuration not stated) | inactive |
| O=C(O/N=C1\CCS(=O)(=O)c2sccc21)c1c(F)cccc1F | active: 4.78 µM |
| Cc1ccc(S(=O)(=O)NC(=O)Nc2ccc(Cl)cn2)cc1 | inactive |
| Cc1ccc(C)c(NC(=S)Nc2ncccc2C)c1 | active: 16.9 µM |
| CCCc1cc(-c2n[nH]c(=S)n2Cc2ccccc2)cs1 | inactive |
| CC(C)(CO)NCC(O)Cn1cc(C=O)c2ccccc21 (configuration not stated) | inactive |

| Structure (SMILES) | Potency |
| --- | --- |
| S=C(c1ccc(-c2ccc(Cl)c(Cl)c2)o1)N1CCOCC1 | active: 2.69 µM |
| COc1cc(OC)cc(C(=O)Nc2cc(-c3nc4ccccc4s3)ccc2OC)c1 | inconclusive: 3.79 µM [inhibitor, full curve] |
| CCCCN(CC(=O)NC1CCCC1)C(=O)C(=O)Nc1ccc2c(c1)OCCO2 | inactive |
| COc1cc(/C=C2\SC(=Nc3ccc(N4CCOCC4)cc3)N(C)C2=O)ccc1OC(C)C(=O)O (configuration not stated) | inconclusive: 37.9 µM [inhibitor, partial curve, poor fit] |
| CCOc1ccc(NC(=O)CN(C)S(=O)(=O)c2ccc3c(c2)c(=O)n(C)c(=O)n3C)cc1 | inactive |
| CCOC(=O)N1CCN(c2ncnc3c2[nH]c2ccc(F)cc23)CC1 | inactive |
| Cc1ccc(CNC(=O)CSCc2ccccc2F)cc1 | inconclusive: 30.1 µM [inhibitor, partial curve, poor fit] |
| O=C(c1cnc(-c2ccccc2)s1)c1ccc(Cl)cc1Cl | inconclusive: 12 µM [inhibitor, partial curve, poor fit] |
| Fc1ccc(-c2nnc(Cc3ccc(Cl)cc3)o2)cc1 | active: 16.9 µM |
| O=C(N/N=C/c1cccnc1)c1ccco1 | inactive |
| O=C(NC(Cc1ccc(O)cc1)C(=O)O)c1ccc2c(c1)OCO2 (configuration not stated) | inconclusive: 23.9 µM [inhibitor, partial curve, poor fit] |
| O=S(=O)(Nc1ccc(N2CCCCC2)cc1)c1ccc(F)cc1F | inactive |
| CC(=O)c1cccc(OCc2cc(C(=O)N3CC4C[C@@H]5CC3C[C@H](C4)C5)no2)c1 | inconclusive: 37.9 µM [inhibitor, partial curve, poor fit] |
| CC(C)(C)NS(=O)(=O)c1ccc(NC(=O)C2CC(=O)N(CCc3ccc(F)cc3)C2)cc1 (configuration not stated) | inactive |
| COC(=O)c1cc2c(N)c(C(=O)c3ccccc3)sc2nc1C(OC)OC | inconclusive: 37.9 µM [inhibitor, partial curve, poor fit] |
| COC(=O)c1ccccc1NC1=C/C(=N\S(=O)(=O)c2cccs2)c2ccccc2C1=O | inconclusive: 30.1 µM [inhibitor, single point] |
| COc1ccc(NC(=S)Nc2ccc(OC(F)F)cc2)cn1 | inactive |
| CC1=NN(c2ccccc2)C(=O)C1/C=C1/NC(=S)NC1=O (configuration not stated) | active: 16.9 µM |
| Cc1ccc2nc(N3CCC(C(=O)NC4CCCCC4)CC3)sc2c1 | inactive |
| COc1ccc(S(=O)(=O)N2CCCCCC2)cc1C(=O)Nc1ccccn1 | inconclusive: 42.6 µM [inhibitor, partial curve, poor fit] |
| Cc1ccc(-n2ncc3c2ncn2nc(-c4ccco4)nc32)c(C)c1 | inconclusive: 6.01 µM [inhibitor, partial curve] |
| OC1CCCN(c2ncnc3c2nnn3Cc2c(F)cccc2Cl)C1 (configuration not stated) | inactive |
| Cc1ccccc1NCC(=O)N/N=C\c1ccc2c(c1)OCO2 | inconclusive: 30.1 µM [inhibitor, partial curve, poor fit] |
| Cc1onc(-c2ccccc2Cl)c1C(=O)Nc1ccc(OCC(=O)N2CCOCC2)cc1 | inactive |

| Structure (SMILES) | Potency |
| --- | --- |
| COc1cc2c(cc1OC)/C(=C/C(=O)c1ccc([N+](=O)[O-])c(C)c1)NCC2 | inconclusive: 21.3 µM [inhibitor, partial curve] |
| O=[N+]([O-])c1ccccc1/C=C/C=N/n1c(-c2ccccc2F)n[nH]c1=S | inconclusive: 26.9 µM [inhibitor, partial curve, poor fit] |
| O=C(NCc1ccco1)Nc1ccc2nsnc2c1 | inconclusive: 23.9 µM [inhibitor, partial curve, poor fit] |
| CCc1nnc(NC(=O)c2c(C)nn(-c3ccccc3)c2Cl)s1 | inconclusive: 30.1 µM [inhibitor, partial curve, poor fit] |
| COc1ccc2cc(C(=O)c3ccccc3)c(=O)oc2c1 | inconclusive: 23.9 µM [inhibitor, single point] |
| COc1cc(NC(=S)NC(=O)c2cccs2)ccc1NC(=O)C(C)C | inconclusive: 15.1 µM [inhibitor, partial curve] |
| COc1ccc(OC)c(NC(=O)CSc2n[nH]c(-c3ccccc3Cl)n2)c1 | inconclusive: 42.6 µM [inhibitor, partial curve, poor fit] |
| CCOC(=O)c1c(C)[nH]c(C2=NNC(=Nc3ccc(OCC)cc3)SC2)c1C | inconclusive: 16.9 µM [inhibitor, partial curve] |
| Cc1ccc(OCCCC(=O)N2CCOCC2)cc1 | inconclusive: 37.9 µM [inhibitor, partial curve, poor fit] |
| CCOc1ccc(-n2nc(CO)c(C(=O)NCc3ccc(Cl)cc3)n2)cc1 | inactive |
| CCOc1cc(C=O)cc(Cl)c1OCC(N)=O | inactive |
| Cc1ccc(-c2nnc(SCCOc3ccccc3)o2)cc1 | inconclusive: 37.9 µM [inhibitor, partial curve, poor fit] |
| COc1ccc(C2CC(c3ccc(C)o3)=NN2C(C)=O)cc1 (configuration not stated) | inconclusive: 21.3 µM [inhibitor, single point] |
| CCc1c(C(=O)N2CCCN(C)CC2)csc1C | inactive |
| CCn1c(CC(=O)Nc2cccc(OC)c2)nnc1SCC(=O)N1CCN(c2ccccc2)CC1 | inconclusive: 30.1 µM [inhibitor, partial curve, poor fit] |
| Cc1c(C(=O)O)[nH]c2c1C(=O)CC(c1ccc(C(C)(C)C)cc1)C2 (configuration not stated) | active: 9.53 µM |
| NC(=O)c1ccccc1NC(=O)Nc1cccc(Cl)c1 | active: 15.1 µM |
| CCOc1ccccc1NC(=O)CSc1nnc(NC(=O)c2ccco2)s1 | inconclusive: 12 µM [inhibitor, partial curve] |
| Cc1[nH]c2ccccc2c1C(=O)/C=C/c1ccccc1Cl | active: 8.49 µM |
| O=C1OC(c2ccc(Cl)cc2)=N/C1=C\C=C\c1ccco1 | inconclusive: 9.53 µM [inhibitor, partial curve, poor fit] |
| O=C(NC1CC(=O)N(c2ccccc2)C1)c1ccc(S(=O)(=O)N2CCOCC2)cc1 (configuration not stated) | inactive |
| Nc1ccc2nc(CCCCCCc3nc4ccc(N)cc4[nH]3)[nH]c2c1 | inconclusive: 16.9 µM [inhibitor, partial curve] |
| O=C(CCCN1C(=O)/C(=C\c2ccccc2)SC1=S)Nc1ccc(O)cc1C(=O)O | inconclusive: 37.9 µM [inhibitor, single point] |
| COc1ccc(CCNC(=O)CN(c2ccc(C)cc2)S(=O)(=O)c2ccc(OC)cc2)cc1 | inactive |

Source: PubChem BioAssay AID588342 (National Center for Advancing Translational Sciences (NCATS), 2011)
